Article PMC10604658
Results are given in words; binding and its absence hold for the method and conditions named. Binding seen in cells or lysates may run through a third protein. Some entries that bind do so weakly or less than the wild type. Where a sequence is shown, tags or fusion partners need not be part of it.

Protein sequences, listed by entry. Tags and fused reporters are not part of them.
UniProt Q6GQQ9: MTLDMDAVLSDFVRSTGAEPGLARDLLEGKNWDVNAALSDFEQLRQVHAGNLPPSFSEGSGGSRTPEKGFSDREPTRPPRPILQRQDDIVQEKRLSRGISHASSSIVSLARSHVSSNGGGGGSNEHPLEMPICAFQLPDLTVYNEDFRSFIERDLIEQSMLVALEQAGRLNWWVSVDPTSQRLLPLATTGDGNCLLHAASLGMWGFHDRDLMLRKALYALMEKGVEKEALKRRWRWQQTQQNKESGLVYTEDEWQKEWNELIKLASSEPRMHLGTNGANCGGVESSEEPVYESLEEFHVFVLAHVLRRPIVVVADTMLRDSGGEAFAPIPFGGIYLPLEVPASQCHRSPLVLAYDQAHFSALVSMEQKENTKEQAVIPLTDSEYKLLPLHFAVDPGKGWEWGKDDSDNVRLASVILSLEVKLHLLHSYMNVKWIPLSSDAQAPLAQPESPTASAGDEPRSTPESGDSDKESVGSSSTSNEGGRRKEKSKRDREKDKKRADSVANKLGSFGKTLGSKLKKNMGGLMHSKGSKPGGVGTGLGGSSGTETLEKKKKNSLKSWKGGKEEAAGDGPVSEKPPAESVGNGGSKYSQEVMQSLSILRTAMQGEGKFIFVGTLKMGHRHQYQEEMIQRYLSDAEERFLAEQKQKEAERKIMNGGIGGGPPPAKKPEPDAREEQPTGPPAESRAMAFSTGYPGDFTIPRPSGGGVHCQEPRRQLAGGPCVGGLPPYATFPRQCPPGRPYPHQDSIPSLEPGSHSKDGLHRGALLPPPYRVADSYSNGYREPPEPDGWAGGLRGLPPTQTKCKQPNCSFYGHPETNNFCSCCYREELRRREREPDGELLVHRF
UniProt Q93009: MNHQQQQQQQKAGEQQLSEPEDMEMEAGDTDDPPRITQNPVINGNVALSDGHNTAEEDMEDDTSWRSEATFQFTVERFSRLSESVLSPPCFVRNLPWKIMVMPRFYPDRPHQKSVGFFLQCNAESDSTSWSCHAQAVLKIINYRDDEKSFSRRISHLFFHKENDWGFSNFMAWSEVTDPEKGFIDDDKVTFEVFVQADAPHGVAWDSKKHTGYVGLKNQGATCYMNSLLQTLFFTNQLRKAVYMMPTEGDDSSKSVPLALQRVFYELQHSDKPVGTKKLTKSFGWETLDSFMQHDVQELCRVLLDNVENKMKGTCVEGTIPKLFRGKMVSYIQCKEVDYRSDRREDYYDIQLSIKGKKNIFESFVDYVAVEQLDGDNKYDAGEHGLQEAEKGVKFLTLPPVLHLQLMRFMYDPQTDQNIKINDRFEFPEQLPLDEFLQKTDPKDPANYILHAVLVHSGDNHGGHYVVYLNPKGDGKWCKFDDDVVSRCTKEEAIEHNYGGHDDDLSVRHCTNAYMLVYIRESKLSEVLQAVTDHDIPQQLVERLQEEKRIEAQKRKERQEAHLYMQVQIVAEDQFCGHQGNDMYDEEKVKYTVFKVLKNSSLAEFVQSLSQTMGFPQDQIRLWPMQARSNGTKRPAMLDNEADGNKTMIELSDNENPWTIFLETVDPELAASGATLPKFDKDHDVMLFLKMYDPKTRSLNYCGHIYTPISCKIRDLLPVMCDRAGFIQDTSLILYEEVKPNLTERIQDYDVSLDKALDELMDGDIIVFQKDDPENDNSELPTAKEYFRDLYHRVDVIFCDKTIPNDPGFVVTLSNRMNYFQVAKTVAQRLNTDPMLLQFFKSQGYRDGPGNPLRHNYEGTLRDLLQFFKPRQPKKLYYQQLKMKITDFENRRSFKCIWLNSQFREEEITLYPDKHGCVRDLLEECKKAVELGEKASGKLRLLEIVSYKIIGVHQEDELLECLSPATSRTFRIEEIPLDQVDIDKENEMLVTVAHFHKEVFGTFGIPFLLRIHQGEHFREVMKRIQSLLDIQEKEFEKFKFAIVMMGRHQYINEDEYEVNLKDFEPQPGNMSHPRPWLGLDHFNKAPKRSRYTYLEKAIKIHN

Assays:
SFB-USP39 (human) = molecular target: T1, SFB-USP39 (human) (UniProt Q53GS9); experiment: pull-down; HEK293T cells co-transfected with MYC-ETS2 (or its mutants) and SFB-DUB (or USP39 mutants); SFB protein pulled down with S-protein agarose beads from NETN lysate, overnight at 4 °C; bound MYC protein detected by anti-MYC blot
T1 sequence: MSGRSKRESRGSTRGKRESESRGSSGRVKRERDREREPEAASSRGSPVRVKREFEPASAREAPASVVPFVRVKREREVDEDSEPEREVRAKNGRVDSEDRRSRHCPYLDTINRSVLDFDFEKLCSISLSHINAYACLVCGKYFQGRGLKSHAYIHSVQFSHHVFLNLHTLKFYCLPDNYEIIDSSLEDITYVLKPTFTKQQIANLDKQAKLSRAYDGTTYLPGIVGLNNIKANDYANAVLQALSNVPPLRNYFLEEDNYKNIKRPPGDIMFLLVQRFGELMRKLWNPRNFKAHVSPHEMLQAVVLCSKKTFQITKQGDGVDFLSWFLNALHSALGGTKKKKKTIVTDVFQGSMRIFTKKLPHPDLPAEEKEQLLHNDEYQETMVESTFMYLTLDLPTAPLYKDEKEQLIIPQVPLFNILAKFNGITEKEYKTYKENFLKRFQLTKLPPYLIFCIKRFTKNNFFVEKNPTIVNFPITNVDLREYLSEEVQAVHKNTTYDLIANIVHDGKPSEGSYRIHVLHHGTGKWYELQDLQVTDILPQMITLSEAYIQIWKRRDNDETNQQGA

SFB-OTUD7B (human) = SFB-OTUD7B (human) (UniProt Q6GQQ9); experiment: as above
SFB-USP7 (human) = SFB-USP7 (human) (UniProt Q93009); experiment: pull-down; screen: HEK293T cells co-transfected with MYC-ETS2 and each of 59 SFB-tagged human DUBs; DUB pulled down with S-protein agarose beads from NETN lysate (100 mM NaCl, 0.05% NP-40), overnight at 4 °C; bound ETS2 detected by anti-MYC blot
SFB-USP4 (human) = molecular target: T2, SFB-USP4 (human) (UniProt Q13107); experiment: as above
T2 sequence: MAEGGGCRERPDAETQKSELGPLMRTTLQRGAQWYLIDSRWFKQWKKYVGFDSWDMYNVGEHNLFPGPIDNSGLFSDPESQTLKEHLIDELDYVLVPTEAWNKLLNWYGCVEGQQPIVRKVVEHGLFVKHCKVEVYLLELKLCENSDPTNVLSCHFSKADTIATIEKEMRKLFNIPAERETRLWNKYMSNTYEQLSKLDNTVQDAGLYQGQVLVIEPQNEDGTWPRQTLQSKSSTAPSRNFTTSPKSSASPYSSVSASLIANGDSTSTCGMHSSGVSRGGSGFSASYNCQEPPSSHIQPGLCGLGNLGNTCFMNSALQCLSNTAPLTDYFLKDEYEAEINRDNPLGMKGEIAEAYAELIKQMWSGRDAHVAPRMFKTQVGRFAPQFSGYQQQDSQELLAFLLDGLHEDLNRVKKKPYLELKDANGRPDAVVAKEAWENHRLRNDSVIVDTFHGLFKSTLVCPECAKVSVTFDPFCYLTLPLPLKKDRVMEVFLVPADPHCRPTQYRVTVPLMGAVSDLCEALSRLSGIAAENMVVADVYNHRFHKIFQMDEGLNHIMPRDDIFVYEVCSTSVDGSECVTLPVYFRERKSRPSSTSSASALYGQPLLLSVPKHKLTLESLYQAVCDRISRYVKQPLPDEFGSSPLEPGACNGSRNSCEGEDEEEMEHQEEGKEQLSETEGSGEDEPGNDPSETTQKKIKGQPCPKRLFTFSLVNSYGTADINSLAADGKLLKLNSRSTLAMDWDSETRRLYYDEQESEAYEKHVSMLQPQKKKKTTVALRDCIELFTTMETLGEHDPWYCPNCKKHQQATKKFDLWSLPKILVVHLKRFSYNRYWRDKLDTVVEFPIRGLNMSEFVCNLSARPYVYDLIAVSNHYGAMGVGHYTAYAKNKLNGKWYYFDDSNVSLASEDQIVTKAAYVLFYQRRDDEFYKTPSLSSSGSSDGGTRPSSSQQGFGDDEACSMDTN

SFB-TNFAIP3 (human) = molecular target: T3, SFB-TNFAIP3 (human) (UniProt P21580); experiment: as above
T3 sequence: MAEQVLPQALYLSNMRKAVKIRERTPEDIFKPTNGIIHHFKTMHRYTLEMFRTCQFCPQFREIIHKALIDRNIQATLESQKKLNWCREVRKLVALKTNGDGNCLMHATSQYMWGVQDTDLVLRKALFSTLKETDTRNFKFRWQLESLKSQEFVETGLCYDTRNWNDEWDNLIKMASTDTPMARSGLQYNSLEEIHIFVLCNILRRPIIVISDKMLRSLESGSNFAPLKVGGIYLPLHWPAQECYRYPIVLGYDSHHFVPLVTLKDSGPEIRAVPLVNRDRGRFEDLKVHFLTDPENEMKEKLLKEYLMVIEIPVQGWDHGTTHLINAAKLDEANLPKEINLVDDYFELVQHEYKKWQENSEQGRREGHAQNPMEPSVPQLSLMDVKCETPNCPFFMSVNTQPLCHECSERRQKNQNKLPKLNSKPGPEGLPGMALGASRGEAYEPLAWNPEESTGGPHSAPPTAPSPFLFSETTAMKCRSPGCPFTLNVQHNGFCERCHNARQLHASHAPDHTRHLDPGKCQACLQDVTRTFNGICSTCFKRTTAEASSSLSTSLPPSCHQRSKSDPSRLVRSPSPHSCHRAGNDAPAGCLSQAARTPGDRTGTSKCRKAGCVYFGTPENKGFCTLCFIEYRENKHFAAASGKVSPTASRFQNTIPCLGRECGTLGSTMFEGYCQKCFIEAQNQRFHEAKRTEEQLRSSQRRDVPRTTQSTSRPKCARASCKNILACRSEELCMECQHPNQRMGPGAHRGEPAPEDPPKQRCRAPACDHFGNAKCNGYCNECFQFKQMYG

binding (SFB-USP39 (human)): binds
binding (SFB-OTUD7B (human)): binds
binding (SFB-USP7 (human)): no binding
binding (SFB-USP4 (human)): binds
binding (SFB-TNFAIP3 (human)): binds
B1: MYC-ETS2 (protein, UniProt P15036 1-469)
chain: MNDFGIKNMDQVAPVANSYRGTLKRQPAFDTFDGSLFAVFPSLNEEQTLQEVPTGLDSISHDSANCELPLLTPCSKAVMSQALKATFSGFKKEQRRLGIPKNPWLWSEQQVCQWLLWATNEFSLVNVNLQRFGMNGQMLCNLGKERFLELAPDFVGDILWEHLEQMIKENQEKTEDQYEENSHLTSVPHWINSNTLGFGTEQAPYGMQTQNYPKGGLLDSMCPASTPSVLSSEQEFQMFPKSRLSSVSVTYCSVSQDFPGSNLNLLTNNSGTPKDHDSPENGADSFESSDSLLQSWNSQSSLLDVQRVPSFESFEDDCSQSLCLNKPTMSFKDYIQERSDPVEQGKPVIPAAVLAGFTGSGPIQLWQFLLELLSDKSCQSFISWTGDGWEFKLADPDEVARRWGKRKNKPKMNYEKLSRGLRYYYDKNIIHKTSGKRYVYRFVCDLQNLLGFTPEELHAILGVQPDTED
